Assay results from article PMC5892938.
Some of the results follow. At the low end of the ranking the order means little.

Each sequence was assayed against GST-SBP-SLBP (stem-loop binding protein) (UniProt Q14493) (assay: targeted RNA Bind-n-Seq). Details: RBNS binding buffer: 25 mM Tris pH 7.5, 150 mM KCl, 3 mM MgCl2, 0.1% Tween, 0.5 mg/mL BSA, 1 mM DTT; 27 nM protein, 750 pM RNA pool; temperature not stated; high values mean tight binding.
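Further: DESeq read counts versus GST-SBP nonspecific binding control pulldown.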

Row | Sequence | binding signal (log2 fold change)
1 | GGUCACGUCUCAAUCAACUCUAAAGAGGGGGGGAAAACCCCUUUGCCCUCAAUUUCAACAGCUCGCAGUCAAG | 0.00921
2 | GGUCACGUCUCAAUCAACUCAGUCUCAGGAGUUUACUCCUGCUAUUUCAACAGCUCGCAGUCAAG | -0.0565
3 | GGUCACGUCUCAAUCAACUCUUCGGAGGGGGGGAAAACCCCUUUACCCUCACACUCAACAGCUCGCAGUCAAG | 0.0424
4 | GGUCACGUCUCAAUCAACUCUAUCCCAGGAGUUUCCUCCUGUAUAUUCAACAGCUCGCAGUCAAG | 0.0937
5 | GGUCACGUCUCAAUCAACUCUAUAGAGGGGGGGAAAACCCCUUUACCCUCAUCUUCAACAGCUCGCAGUCAAG | 0.161
6 | GGUCACGUCUCAAUCAACUCAUUCUCAGGAGUUUUCUCCUGCUUAGUCAACAGCUCGCAGUCAAG | 0.161
7 | GGUCACGUCUCAAUCAACUCUUCAGAGGGGGGGAAAACCCCUUUACCCUCCAUAUCAACAGCUCGCAGUCAAG | -0.491
8 | GGUCACGUCUCAAUCAACUCAUUUUCCAGGGAAAACCCUGGCUUAGUCAACAGCUCGCAGUCAAG | -0.175
9 | GGUCACGUCUCAAUCAACUCUACUUCCAGGGAAAGCCCUGGCUAUCUCAACAGCUCGCAGUCAAG | -0.217
10 | GGUCACGUCUCAAUCAACUCAUCUCCCAGGGAAAGCCCUGGUUAUUUCAACAGCUCGCAGUCAAG | -0.239
11 | GGUCACGUCUCAAUCAACUCAAGUCCAGGAGUUUCCUCCUGCUAUCUCAACAGCUCGCAGUCAAG | -0.045
12 | GGUCACGUCUCAAUCAACUCAAUUUCCAGGGAAACCCCUGGCUUACUCAACAGCUCGCAGUCAAG | 0.229
13 | GGUCACGUCUCAAUCAACUCAACGGCAGGAGUUUUCUCCUGGAAUCUCAACAGCUCGCAGUCAAG | -0.111
14 | GGUCACGUCUCAAUCAACUCUAUUUCCAGGGAAAACCCUGGCUAACUCAACAGCUCGCAGUCAAG | 0.157
15 | GGUCACGUCUCAAUCAACUCAUUCUCAGGAGUUUCCUCCUGCUUUUUCAACAGCUCGCAGUCAAG | -0.141
16 | GGUCACGUCUCAAUCAACUCAUCGUCCAGGGAAACCCCUGGUUUAUUCAACAGCUCGCAGUCAAG | 0.0032
17 | GGUCACGUCUCAAUCAACUCUAUCCCCAGGGAAAUCCCUGGUAUACUCAACAGCUCGCAGUCAAG | 0.12
18 | GGUCACGUCUCAAUCAACUCAUCUCCAGGAGUUUUCUCCUGCAUUUUCAACAGCUCGCAGUCAAG | -0.0725
19 | GGUCACGUCUCAAUCAACUCUAUCCCCAGGGAAAGCCCUGGUUAUCUCAACAGCUCGCAGUCAAG | -0.194
20 | GGUCACGUCUCAAUCAACUCUUUCCCCAGGGAAAUCCCUGGUUUAUUCAACAGCUCGCAGUCAAG | -0.0609
21 | GGUCACGUCUCAAUCAACUCUAACGAGGGGGGGAAAACCCCUUUACCCUCAUUUUCAACAGCUCGCAGUCAAG | 0.0587
22 | GGUCACGUCUCAAUCAACUCUAAAGAGGGGGGGAAAACCCCUUUACCCUCAUCCUCAACAGCUCGCAGUCAAG | -0.1
23 | GGUCACGUCUCAAUCAACUCUUCGCCCAGGGAAAGCCCUGGUAUUUUCAACAGCUCGCAGUCAAG | -0.124
24 | GGUCACGUCUCAAUCAACUCCUACGAGGGGGGGAAAACCCCUUUACCCUCAAAUUCAACAGCUCGCAGUCAAG | 0.442

Row | Sequence | binding signal (log2 fold change)
25 | GGUCACGUCUCAAUCAACUCACAUGAGGGGGGGAAAACCCCUUUGCCCUCUAAUUCAACAGCUCGCAGUCAAG | -0.15
26 | GGUCACGUCUCAAUCAACUCUUCCUCCAGGGAAAACCCUGGCUAUUUCAACAGCUCGCAGUCAAG | 0.0356
27 | GGUCACGUCUCAAUCAACUCUUCUCCAGGAGUUUCCUCCUGCUUUUUCAACAGCUCGCAGUCAAG | 0.13
28 | GGUCACGUCUCAAUCAACUCAACUUCAGGAGUUUUCUCCUGCAUUCUCAACAGCUCGCAGUCAAG | 0.0165
29 | GGUCACGUCUCAAUCAACUCUCAAGAGGGGGGGAAAACCCCUUUACCCUCCAUUUCAACAGCUCGCAGUCAAG | -0.196
30 | GGUCACGUCUCAAUCAACUCAUUUUCAGGAGUUUUCUCCUGCAAUUUCAACAGCUCGCAGUCAAG | -0.0703
31 | GGUCACGUCUCAAUCAACUCUUCCUCCAGGGAAACCCCUGGUAAUCUCAACAGCUCGCAGUCAAG | -0.0491
32 | GGUCACGUCUCAAUCAACUCUAUUUCCAGGGAAAUCCCUGGCAAUUUCAACAGCUCGCAGUCAAG | 0.089
33 | GGUCACGUCUCAAUCAACUCUUCGUCCAGGGAAAUCCCUGGCUUUUUCAACAGCUCGCAGUCAAG | -0.0894
34 | GGUCACGUCUCAAUCAACUCUCCAGAGGGGGGGAAAACCCCUUUACCCUCGUUAUCAACAGCUCGCAGUCAAG | -0.263
35 | GGUCACGUCUCAAUCAACUCAAUCUCAGGAGUUUUCUCCUGCAUACUCAACAGCUCGCAGUCAAG | 0.153
36 | GGUCACGUCUCAAUCAACUCUUCUCCAGGAGUUUACUCCUGCAAAUUCAACAGCUCGCAGUCAAG | 0.0277
37 | GGUCACGUCUCAAUCAACUCAAUUCCAGGAGUUUCCUCCUGCUAACUCAACAGCUCGCAGUCAAG | 0.000901
38 | GGUCACGUCUCAAUCAACUCAUUCUCCAGGGAAAUCCCUGGUUAUCUCAACAGCUCGCAGUCAAG | 0.0311
39 | GGUCACGUCUCAAUCAACUCUAUCGAGGGGGGGAAAACCCCUUUACCCUCAAAAUCAACAGCUCGCAGUCAAG | -0.193
40 | GGUCACGUCUCAAUCAACUCAACUCCAGGAGUUUCCUCCUGUAUUUUCAACAGCUCGCAGUCAAG | 0.0431
41 | GGUCACGUCUCAAUCAACUCUUCCUCCAGGGAAAUCCCUGGUAUACUCAACAGCUCGCAGUCAAG | 0.0329
42 | GGUCACGUCUCAAUCAACUCCAUAGAGGGGGGGAAAACCCCUUUACCCUCGUCAUCAACAGCUCGCAGUCAAG | 0.0253
43 | GGUCACGUCUCAAUCAACUCAUCCUCCAGGGAAACCCCUGGUUUUUUCAACAGCUCGCAGUCAAG | -0.16
44 | GGUCACGUCUCAAUCAACUCAUUUUCCAGGGAAAACCCUGGCAUUCUCAACAGCUCGCAGUCAAG | 0.0806
45 | GGUCACGUCUCAAUCAACUCAUUUUCCAGGGAAAGCCCUGGCUUAGUCAACAGCUCGCAGUCAAG | -0.00418
46 | GGUCACGUCUCAAUCAACUCUUUCCCCAGGGAAACCCCUGGCUUUCUCAACAGCUCGCAGUCAAG | 0.0479
47 | GGUCACGUCUCAAUCAACUCAACAGAGGGGGGGAAAACCCCUUUGCCCUCCAUUUCAACAGCUCGCAGUCAAG | -0.132
